Hit rate of the full screen: of about 310,000 compounds, about 2,200 (0.71%) showed an effect of 50% or more. Effects have a minus sign here. The list shows a part of the results.
Molecular target: human ether-à-go-go-related gene (hERG) potassium channel (human, UniProt Q12809)
Assay: primary screen, population patch clamp on CHO cells stably expressing hERG
Protocol: Briefly, Chinese hamster ovary (CHO) cells stably expressing the hERG channel were dislodged from tissue culture flasks and dispensed into PPC plates. […] During the recording, background leak currents were estimated by a 100 ms step to -80 mV from an initial holding potential of -70 mV and subtracted from the subsequent current measurement. The campaign was conducted in two phases using slight differences in recording protocol. In the first phase, the initial voltage pulse used a 100 ms step to -30 mV from a holding potential of -70 mV, a 2 s conditioning step to +25 mV, and a 2 s test step to -30 mV. During the second phase of the screen, the potential during the conditioning step was raised to +45 mV. In both phases of the campaign, a secondary voltage pulse was applied using the same parameters as the second phase initial pulse. The initial and secondary pulses were applied in the absence of compound, and upon application of 1 μM and 10 μM test concentrations. Small molecule effects on hERG current density were quantified by […].

Chain of human ether-à-go-go-related gene (hERG) potassium channel (Q12809 whole entry, looked up): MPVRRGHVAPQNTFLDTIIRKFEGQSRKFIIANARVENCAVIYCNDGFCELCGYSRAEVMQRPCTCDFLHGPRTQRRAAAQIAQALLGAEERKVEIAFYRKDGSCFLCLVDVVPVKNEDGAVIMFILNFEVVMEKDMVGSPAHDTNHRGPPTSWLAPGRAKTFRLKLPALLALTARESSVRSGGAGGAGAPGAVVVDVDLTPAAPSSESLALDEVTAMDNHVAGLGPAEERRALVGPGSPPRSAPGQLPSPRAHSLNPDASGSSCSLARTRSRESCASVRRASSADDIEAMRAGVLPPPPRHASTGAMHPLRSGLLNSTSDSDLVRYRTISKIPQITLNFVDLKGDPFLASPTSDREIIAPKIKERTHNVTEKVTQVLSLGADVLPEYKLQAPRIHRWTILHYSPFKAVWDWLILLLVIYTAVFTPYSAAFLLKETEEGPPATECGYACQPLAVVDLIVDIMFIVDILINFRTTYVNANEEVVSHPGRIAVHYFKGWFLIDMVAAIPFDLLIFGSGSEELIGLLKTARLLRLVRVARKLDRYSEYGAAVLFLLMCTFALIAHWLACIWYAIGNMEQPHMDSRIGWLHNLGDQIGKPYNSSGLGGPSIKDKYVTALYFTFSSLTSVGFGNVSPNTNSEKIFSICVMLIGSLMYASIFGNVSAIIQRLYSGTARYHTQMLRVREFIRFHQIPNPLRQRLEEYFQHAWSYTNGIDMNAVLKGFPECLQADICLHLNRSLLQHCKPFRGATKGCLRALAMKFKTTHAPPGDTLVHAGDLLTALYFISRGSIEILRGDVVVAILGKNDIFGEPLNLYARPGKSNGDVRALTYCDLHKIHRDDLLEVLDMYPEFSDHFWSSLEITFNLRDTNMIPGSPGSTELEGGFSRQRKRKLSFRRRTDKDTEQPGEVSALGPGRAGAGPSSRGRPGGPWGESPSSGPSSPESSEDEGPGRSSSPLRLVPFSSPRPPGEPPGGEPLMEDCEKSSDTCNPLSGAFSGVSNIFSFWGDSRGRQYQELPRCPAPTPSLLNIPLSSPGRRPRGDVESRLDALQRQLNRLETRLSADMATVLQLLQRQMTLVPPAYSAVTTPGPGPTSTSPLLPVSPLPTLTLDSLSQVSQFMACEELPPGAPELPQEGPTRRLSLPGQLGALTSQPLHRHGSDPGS

**Q.** How did the “hERG current change (%, negative = inhibition) at 1uM” value turn out when `O=C(NCCCNc1ccc([N+](=O)[O-])cc1)C(F)(F)F` was run?
**A.** Its value is 6.61%.

**Q.** Which “hERG current change (%, negative = inhibition) at 1uM” value does the source give for `Cc1cc(C(=O)OCC(=O)Nc2ccc(F)c(F)c2F)c(C)o1` here?
**A.** Its value is 11.4%.

**Q.** Which “hERG current change (%, negative = inhibition) at 1uM” value does the source give for `CCc1c(C)c2ccc(O)c(CN(C)C)c2oc1=O` here?
**A.** The value was 7.22%.

**Q.** How did the “hERG current change (%, negative = inhibition) at 1uM” value turn out when `CCc1c(C)nc2ncnn2c1N1CCC(C(=O)Nc2ccc(C)cc2)CC1` was run?
**A.** Its value is -17.4%.

**Q.** `CCCCCCCCCCS(=O)(=O)N/N=C/c1ccc(O)cc1` was tested. Which “hERG current change (%, negative = inhibition) at 1uM” value did it give?
**A.** The value was 13.3%.

**Q.** For `CCCc1cc(=O)oc2cc(OCC(=O)Nc3cc(C)on3)ccc12`, which “hERG current change (%, negative = inhibition) at 1uM” value is on record?
**A.** The value was 8.03%.

**Q.** For `CC(C)(Oc1ccc(Cl)cc1)C(=O)Nc1ncccn1`, which “hERG current change (%, negative = inhibition) at 1uM” value is on record?
**A.** The value was 6.6%.

**Q.** For `CN(Cc1ccccc1)c1nc2c(c(=O)[nH]c(=O)n2C)n1CCCSc1ncccn1`, which “hERG current change (%, negative = inhibition) at 1uM” value is on record?
**A.** Its value is -0.0086%.

**Q.** How did the “hERG current change (%, negative = inhibition) at 1uM” value turn out when `CC(OC(=O)c1ccco1)C(=O)Nc1ccc(Cl)cn1` (centres unmarked) was run?
**A.** The value was 5.93%.

**Q.** For `Cc1cc(=O)c2c(C)ccc(C)c2[nH]1`, which “hERG current change (%, negative = inhibition) at 1uM” value is on record?
**A.** The value was 15.8%.

**Q.** Which “hERG current change (%, negative = inhibition) at 1uM” value does the source give for `O=C(COC(=O)CSc1ccccc1)NNC(=O)c1ccc([N+](=O)[O-])cc1` here?
**A.** The value was 7.62%.

**Q.** `CC(C)C1N(S(=O)(=O)c2ccccc2)CCN1S(=O)(=O)c1ccccc1` was tested. Which “hERG current change (%, negative = inhibition) at 1uM” value did it give?
**A.** Its value is -8.58%.

**Q.** Which “hERG current change (%, negative = inhibition) at 1uM” value does the source give for `Cc1n[nH]c(C)c1S(=O)(=O)N1CCCC(C(=O)Nc2nccs2)C1` (centres unmarked) here?
**A.** Its value is 7.73%.

**Q.** How did the “hERG current change (%, negative = inhibition) at 1uM” value turn out when `CCOc1ccc(N(CC(=O)NC2CCCCC2)S(=O)(=O)c2ccc(C)cc2)cc1` was run?
**A.** Its value is 3.38%.

**Q.** With `O=C(NCCCN1CCOCC1)c1csc2c1CCCC2` as the molecule, how does the “hERG current change (%, negative = inhibition) at 1uM” value read?
**A.** Its value is 9.09%.

**Q.** `CCn1nc(C)c(CNC(=O)CCc2nnc(-c3ccc(C(C)=O)s3)o2)c1C` was tested. Which “hERG current change (%, negative = inhibition) at 1uM” value did it give?
**A.** Its value is 7.29%.

**Q.** For `O=C(Cn1cnc2ccccc2c1=O)Nc1nnc(SCc2ccccc2)s1`, which “hERG current change (%, negative = inhibition) at 1uM” value is on record?
**A.** The value was 2.31%.

**Q.** With `ClCCCc1cn(C[C@H]2CC[C@@H]([C@@H]3CC[C@H](Cn4cc(CCCCl)nn4)O3)O2)nn1` as the molecule, how does the “hERG current change (%, negative = inhibition) at 1uM” value read?
**A.** The value was -12.4%.

**Q.** With `CCOC(=O)c1cc(C(C)C)sc1NC(=O)COC(=O)CCS(=O)(=O)c1ccccc1` as the molecule, how does the “hERG current change (%, negative = inhibition) at 1uM” value read?
**A.** The value was 6.88%.

**Q.** `CS(=O)(=O)N1CCN(c2ccccc2NC(=O)c2ccc(Cl)cc2)CC1` was tested. Which “hERG current change (%, negative = inhibition) at 1uM” value did it give?
**A.** Its value is 5.76%.

**Q.** How did the “hERG current change (%, negative = inhibition) at 1uM” value turn out when `COc1ccc(NC(=O)CCS(=O)(=O)c2ccc(Cl)cc2)cc1` was run?
**A.** The value was 4.13%.

**Q.** With `Cc1ccc(OCC(=O)Nc2cccc3c2CCCC3)cc1C` as the molecule, how does the “hERG current change (%, negative = inhibition) at 1uM” value read?
**A.** The value was 7.4%.

**Q.** How did the “hERG current change (%, negative = inhibition) at 1uM” value turn out when `O=C(NNC(=O)c1ccc(Cl)nc1)c1ccncc1` was run?
**A.** Its value is 4.5%.

**Q.** With `COc1ccc(Cl)cc1-c1nc(-c2ccncc2)no1` as the molecule, how does the “hERG current change (%, negative = inhibition) at 1uM” value read?
**A.** The value was 12.6%.

**Q.** With `CC(=O)NC(c1ccccc1)c1cc(Cl)c2cccnc2c1O` (centres unmarked) as the molecule, how does the “hERG current change (%, negative = inhibition) at 1uM” value read?
**A.** Its value is 7.95%.

**Q.** For `Cc1c(Cl)cccc1Nc1ccccc1C(=O)O`, which “hERG current change (%, negative = inhibition) at 1uM” value is on record?
**A.** Its value is 14.7%.

**Q.** Which “hERG current change (%, negative = inhibition) at 1uM” value does the source give for `COc1ccccc1COCC(O)CN(Cc1ccco1)Cc1ccccc1O` (centres unmarked) here?
**A.** The value was 13.1%.

**Q.** `N/C(=N\OC(=O)/C=C/c1ccccc1)c1ccccn1` was tested. Which “hERG current change (%, negative = inhibition) at 1uM” value did it give?
**A.** The value was 9.07%.

**Q.** Which “hERG current change (%, negative = inhibition) at 1uM” value does the source give for `Cc1ccc(N(C(=O)c2csnn2)C(C(=O)NC2CCCC2)c2ccncc2)c(C)c1` (centres unmarked) here?
**A.** Its value is 1.27%.

**Q.** How did the “hERG current change (%, negative = inhibition) at 1uM” value turn out when `CCN(C)Cc1c(C(=O)N2CCc3ccccc3C2)nc2ccc(Cl)cn12` was run?
**A.** The value was -1.03%.

**Q.** Which “hERG current change (%, negative = inhibition) at 1uM” value does the source give for `O=C(Nc1cc(Cl)ccc1N1CCCC1)C1=COCCO1` here?
**A.** Its value is 0.622%.

**Q.** For `CCCCNC(=O)COC(=O)CCC(=O)c1ccc(F)cc1`, which “hERG current change (%, negative = inhibition) at 1uM” value is on record?
**A.** The value was 5.72%.

**Q.** For `O=C(O)c1cc(N/N=C/c2ccc3c(c2)OCO3)ccc1Cl`, which “hERG current change (%, negative = inhibition) at 1uM” value is on record?
**A.** The value was 11.7%.

**Q.** For `COc1ccc(CCNC(=O)C2CCCN(S(=O)(=O)c3cccc4nonc34)C2)cc1OC` (centres unmarked), which “hERG current change (%, negative = inhibition) at 1uM” value is on record?
**A.** Its value is 14.1%.

**Q.** How did the “hERG current change (%, negative = inhibition) at 1uM” value turn out when `CCOc1ccccc1C(=O)NCC(=O)OCC(=O)c1ccc2c(c1)OCCO2` was run?
**A.** The value was -6%.

**Q.** How did the “hERG current change (%, negative = inhibition) at 1uM” value turn out when `Cc1sc(NC(=O)CCl)c(C(=O)c2ccccc2)c1C` was run?
**A.** The value was 15.1%.

**Q.** For `CCN(CC)S(=O)(=O)c1cc(C(=O)Nc2cc(C)on2)c(Cl)cc1Cl`, which “hERG current change (%, negative = inhibition) at 1uM” value is on record?
**A.** The value was 16.2%.

**Q.** With `COc1ccc(CC(=O)N2CCC(c3ccccc3)C2)cc1` (centres unmarked) as the molecule, how does the “hERG current change (%, negative = inhibition) at 1uM” value read?
**A.** The value was 5.25%.

**Q.** Which “hERG current change (%, negative = inhibition) at 1uM” value does the source give for `COc1cc(C(=O)NCc2cccnc2)ccc1OCC(=O)Nc1cccc(C(F)(F)F)c1` here?
**A.** Its value is 2.87%.

**Q.** With `CCN(CC)CCNC(=O)CNC(=O)c1nn(-c2ccc(OC)c(OC)c2)c(=O)c2ccccc12` as the molecule, how does the “hERG current change (%, negative = inhibition) at 1uM” value read?
**A.** Its value is 13.1%.

**Q.** For `Cc1ccc(NC(=O)C2CCN(S(=O)(=O)c3cccc4nonc34)CC2)nc1`, which “hERG current change (%, negative = inhibition) at 1uM” value is on record?
**A.** Its value is 10.1%.

**Q.** How did the “hERG current change (%, negative = inhibition) at 1uM” value turn out when `O=C(c1cc([N+](=O)[O-])ccc1Cl)N1CCN(c2ccccn2)CC1` was run?
**A.** The value was 10.5%.

**Q.** For `N#C/C(=C\c1cc([N+](=O)[O-])c(N2CCOCC2)cc1N1CCOCC1)c1nc2ccccc2[nH]1`, which “hERG current change (%, negative = inhibition) at 1uM” value is on record?
**A.** Its value is -0.443%.

**Q.** Which “hERG current change (%, negative = inhibition) at 1uM” value does the source give for `CCOC(=O)C1CCCN(C(=O)c2sc3nc(-c4ccccc4)cn3c2C)C1` (centres unmarked) here?
**A.** Its value is -8.83%.

**Q.** How did the “hERG current change (%, negative = inhibition) at 1uM” value turn out when `COc1ccc(/C=N/n2c(C)nc3ccccc3c2=O)cc1` was run?
**A.** Its value is 14.4%.

**Q.** With `COc1ccc(C2/C(=C(/O)c3ccc4c(c3)CC(C)O4)C(=O)C(=O)N2CCCN2CCOCC2)cc1OC` (centres unmarked) as the molecule, how does the “hERG current change (%, negative = inhibition) at 1uM” value read?
**A.** Its value is 7.28%.

**Q.** For `COc1cccc(NC(=O)C2CCN(c3cnccn3)CC2)c1`, which “hERG current change (%, negative = inhibition) at 1uM” value is on record?
**A.** The value was 7.74%.

**Q.** `COc1ccccc1C(=O)COC(=O)c1nc(Cl)ccc1Cl` was tested. Which “hERG current change (%, negative = inhibition) at 1uM” value did it give?
**A.** The value was 8.71%.

**Q.** How did the “hERG current change (%, negative = inhibition) at 1uM” value turn out when `CN(c1ccccc1)S(=O)(=O)c1nnc(NC(=O)c2ccco2)s1` was run?
**A.** Its value is 12.2%.

**Q.** `O=C(Nc1nc(-c2ccccc2)c(-c2ccccc2)s1)c1ccc(S(=O)(=O)N2CCCC2)cc1` was tested. Which “hERG current change (%, negative = inhibition) at 1uM” value did it give?
**A.** Its value is 7.54%.

**Q.** `COc1ccc2c(c1OC)C(=O)N(c1nccs1)C2` was tested. Which “hERG current change (%, negative = inhibition) at 1uM” value did it give?
**A.** Its value is 8.11%.

**Q.** How did the “hERG current change (%, negative = inhibition) at 1uM” value turn out when `Cn1cc(S(=O)(=O)N2CCc3ccccc3C2)c(=O)n(C)c1=O` was run?
**A.** Its value is 2.59%.

**Q.** How did the “hERG current change (%, negative = inhibition) at 1uM” value turn out when `COc1cccc(-c2noc(-c3ccoc3C)n2)c1` was run?
**A.** The value was 26.8%.

**Q.** With `O=C(Nc1cccc(S(=O)(=O)NC2=NCCC2)c1)C1CC(=O)N(c2ccc3c(c2)OCCO3)C1` (centres unmarked) as the molecule, how does the “hERG current change (%, negative = inhibition) at 1uM” value read?
**A.** The value was 11.8%.

**Q.** How did the “hERG current change (%, negative = inhibition) at 1uM” value turn out when `O=C(Nc1nc(-c2ccccc2)c(C(=O)c2ccccc2)s1)c1ccc(S(=O)(=O)N2CCCCC2)cc1` was run?
**A.** The value was 5.98%.

**Q.** For `COc1ccc(C2=NOC(Cn3nc(C(=O)NCc4ccc(OC(F)(F)F)cc4)cc3-c3ccccc3)C2)cc1` (centres unmarked), which “hERG current change (%, negative = inhibition) at 1uM” value is on record?
**A.** Its value is -1.05%.

From article PMC4336329 (PLoS ONE, 2015)
